Results are given in words; binding and its absence hold for the method and conditions named. Binding seen in cells or lysates may run through a third protein. Some results given as binding are weak or reduced against the parent protein; the word gives no strength.

The chains behind the UniProt entries cited, without tags or fusion partners.
UniProt P93025: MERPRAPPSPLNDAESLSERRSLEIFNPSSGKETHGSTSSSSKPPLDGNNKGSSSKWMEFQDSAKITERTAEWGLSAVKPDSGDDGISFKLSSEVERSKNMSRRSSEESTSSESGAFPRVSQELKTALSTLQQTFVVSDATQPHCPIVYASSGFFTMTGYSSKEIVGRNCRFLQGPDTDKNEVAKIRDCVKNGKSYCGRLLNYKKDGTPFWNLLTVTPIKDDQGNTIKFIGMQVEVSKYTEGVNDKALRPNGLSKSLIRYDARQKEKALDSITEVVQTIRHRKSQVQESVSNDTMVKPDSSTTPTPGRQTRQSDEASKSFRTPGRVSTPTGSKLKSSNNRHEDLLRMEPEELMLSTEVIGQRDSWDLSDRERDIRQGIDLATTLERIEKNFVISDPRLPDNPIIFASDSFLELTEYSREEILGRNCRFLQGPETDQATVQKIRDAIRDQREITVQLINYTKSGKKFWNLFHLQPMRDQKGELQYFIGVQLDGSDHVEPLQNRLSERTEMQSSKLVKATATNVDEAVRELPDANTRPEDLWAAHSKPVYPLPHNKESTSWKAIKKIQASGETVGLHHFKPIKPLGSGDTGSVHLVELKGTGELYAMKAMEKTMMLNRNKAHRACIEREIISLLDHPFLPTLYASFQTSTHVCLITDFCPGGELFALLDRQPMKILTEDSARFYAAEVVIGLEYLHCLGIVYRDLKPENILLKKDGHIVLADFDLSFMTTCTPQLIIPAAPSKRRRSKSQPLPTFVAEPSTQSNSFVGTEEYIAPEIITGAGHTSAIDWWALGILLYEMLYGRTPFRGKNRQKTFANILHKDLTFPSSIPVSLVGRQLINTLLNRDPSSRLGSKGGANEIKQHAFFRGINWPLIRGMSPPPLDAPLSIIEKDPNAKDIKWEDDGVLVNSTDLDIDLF
UniProt O04209: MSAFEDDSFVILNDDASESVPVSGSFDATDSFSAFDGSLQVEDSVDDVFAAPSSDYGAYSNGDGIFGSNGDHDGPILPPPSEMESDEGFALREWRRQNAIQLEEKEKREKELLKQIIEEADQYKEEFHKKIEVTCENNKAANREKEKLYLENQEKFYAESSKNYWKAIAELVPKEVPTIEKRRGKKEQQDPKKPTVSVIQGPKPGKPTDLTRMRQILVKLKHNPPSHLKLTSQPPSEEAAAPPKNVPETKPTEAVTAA
UniProt O23140: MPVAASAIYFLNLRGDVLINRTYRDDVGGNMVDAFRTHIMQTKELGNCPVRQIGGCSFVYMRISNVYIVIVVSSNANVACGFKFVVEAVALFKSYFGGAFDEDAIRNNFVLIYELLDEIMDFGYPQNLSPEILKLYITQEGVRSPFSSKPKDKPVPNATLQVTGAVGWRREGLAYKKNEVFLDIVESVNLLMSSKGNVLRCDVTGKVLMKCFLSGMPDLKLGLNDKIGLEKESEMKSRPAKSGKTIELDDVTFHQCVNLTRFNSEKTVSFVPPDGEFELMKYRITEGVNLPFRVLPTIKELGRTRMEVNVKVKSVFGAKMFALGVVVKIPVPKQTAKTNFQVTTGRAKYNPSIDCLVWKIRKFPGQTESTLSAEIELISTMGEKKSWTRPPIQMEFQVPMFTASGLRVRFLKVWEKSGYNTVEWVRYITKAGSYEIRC

These results are taken from article PMC4071840.

For assay [1], the target named is PHOT2–CtermGFP (Arabidopsis thaliana) (UniProt P93025). Nature of the assay: split reporter; BiFC with N- and C-terminal GFP fragments, co-expressed transiently in N. benthamiana leaves (Agrobacterium cultures mixed 1:1), confocal microscopy.
Assay [2] has as its target PHOT2–NtermGFP (Arabidopsis thaliana) (UniProt P93025). Described as above.
The target of assay [3] is Atphot2I (Arabidopsis thaliana) (UniProt P93025). Kind of assay: co-IP; microsomal fractions of N. benthamiana leaves co-expressing phot2I (induced with 5 μM β-oestradiol for 12 h) and the GFP protein, leaves irradiated with strong blue light (120 μmol m^-2 s^-1) for 30 min; phot2 antibody on Protein G dynabeads, 3–4 h at 4 °C; western blot with anti-GFP. In general terms: In western blotting, separated proteins are transferred to a membrane and probed.

Take “CLC2–NtermGFP (from UniProt O04209 1-258)”: in assay [1], the binding result is recorded as “binds”.

Take “CtermGFP–AP2μ (from UniProt O23140 1-438)”: the binding result in assay [2] is “no binding”.

Consider GFP–AP2μ (from UniProt O23140 1-438), for which, in assay [3], the binding entry is “no binding”.

For “NtermGFP–AP2μ (from UniProt O23140 1-438)”, the binding entry in assay [1] is on record as “no binding”.

In the case of “CLC2–CtermGFP (from UniProt O04209 1-258)”, in assay [2], the binding result is given as “binds”.

Consider AtCLC2–GFP (from UniProt O04209 1-258), for which the binding result in assay [3] was “binds”.
